Source: PubChem BioAssay AID686978 (National Center for Advancing Translational Sciences (NCATS), 2013)
Screen size: about 420,000 compounds; about 64,000 (15%) were called active. Inconclusive means that the source gave no clear call. Such entries were picked first, then a sample of the others. Calls come from the whole dose curve; as a rule, active = well fitted inhibition curve with a large enough effect; inconclusive = small, poorly fitted or top-dose-only effect; inactive = flat fitted curve, though single readings scatter. Potencies of inconclusive entries are left out as doubtful fits.

experiment: qHTS for Inhibitors of human tyrosyl-DNA phosphodiesterase 1 (TDP1): qHTS in cells in absence of CPT; details: DT40 Tdp1-/- hTDP1 cells, no CPT, ATP luminescence, 48 h; activity change, negative = growth inhibition: at 46.2 µM (top of the series); note: nearly all actives have a fitted effect of over 55% in size
How it was run: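 Cells were dispensed at 400 per well, compounds added by pin tool, plates incubated ≥48 hr at 37 °C, then CellTiter-Glo added for 30 min at room temperature before luminescence reading. Line: DT40 Tdp1-/- complemented with hTDP1; camptothecin omitted.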
% is set by controls: 0 for no effect and ±100 for the full control effect; potency is the fitted concentration of half-maximal effect; tags give direction and shape of the fitted curve.

Compound | Potency | activity change, negative = growth inhibition
CCOC(=O)c1cccc(NC(=O)Cn2c(=O)c3cccn3c3ccccc32)c1 | inconclusive [inhibitor, single point] | –
Cc1c(NS(=O)(=O)c2cccc(C(=O)NCc3ccco3)c2)c(=O)n(-c2ccccc2)n1C | inconclusive [inhibitor, single point] | –
Cc1ccc(CNC(=O)C2CCCN(S(=O)(=O)c3cccc4nonc34)C2)cc1 (stereo unspecified) | inconclusive [inhibitor, single point] | –
O=C1CSC(c2cccc([N+](=O)[O-])c2)N1Cc1ccccc1 (stereo unspecified) | inconclusive [inhibitor, single point] | –
CC(C)C[C@@H]1CN(CCCC[C@H]2CNC(=O)C(=O)N2CCC2CCCCC2)C(=O)C(=O)N1CCc1ccc(O)cc1 | inactive | –
COc1ccc2c(c1)c(=O)c(S(=O)(=O)c1ccc(F)cc1)cn2Cc1ccccc1Cl | active: 0.231 µM | –
C/C(=N\NC(=O)C(O)(c1ccccc1)c1ccccc1)c1ccc(NC(=O)CCCC(=O)O)cc1 | inactive | –
O=C(COc1ncnc2ccccc12)Nc1cc([N+](=O)[O-])ccc1F | inactive | –
c1ccc(-n2cnnc2SCc2cn3cccnc3n2)cc1 | inactive | –
OC(COc1ccccc1)CN(Cc1ccccc1)CC(O)COc1ccccc1 (stereo unspecified) | active: 20.6 µM | –
COc1cccc(NS(=O)(=O)c2ccc(S(=O)(=O)N3CCCC3)cc2)c1 | inconclusive [inhibitor, single point] | –
COc1cccc2c(C)cc3nnc(SCC(=O)Nc4ccc(C)cc4)n3c12 | inconclusive [inhibitor, single point] | –
Cc1cccc(N(C)c2cc(-c3ccc(F)cc3)nc3ccnn23)c1 | inactive | –
CCC(=O)Nc1ccc(-n2nnnc2SCC(=O)NNC(=O)c2ccco2)cc1 | inactive | –
CCCCn1c(CCCNC(=O)CC)nc2ccccc21 | inconclusive [inhibitor, single point] | –
C=CCN(C1CCCCC1)S(=O)(=O)c1ccc2c(c1)oc(=O)n2C | – | inconclusive: -31.9% [inhibitor]
O=C(COC(=O)c1ncc(Cl)c(Cl)c1Cl)NCCc1ccccc1 | inactive | –
Cc1cccc(CNc2cc(-c3ccccc3Cl)ncn2)c1 | inconclusive [inhibitor, single point] | –
O=C1CS/C(=N/N=C/c2cccs2)N1Cc1ccc(F)cc1 | inconclusive [inhibitor, single point] | –
CCN(C[C@H]1N[C@@](CC)(C(=O)OC)[C@H]2C(=O)N(Cc3ccccc3)C(=O)[C@@H]12)C(=O)COc1ccccc1 | inconclusive [inhibitor, single point] | –
CC(=O)c1sc(NC(=O)C2CCN(C(=O)c3ccccc3C)CC2)nc1-c1ccccc1 | inconclusive [inhibitor, single point] | –
CCCCOc1ccc(C(=O)N2CCCCC2CCN2CCOCC2)cc1 (stereo unspecified) | inconclusive [inhibitor, single point] | –
COc1cccc(NC(=O)CSc2nnnn2C2CCCCC2)c1 | – | inconclusive: -32.3% [inhibitor]
O=C(/C=C/Nc1ccccc1)c1ccc(Cl)cc1Cl | inconclusive [inhibitor, partial curve] | –

Compound | Potency | activity change, negative = growth inhibition
OC(CNCc1ccccc1)(c1ccccc1)c1ccccc1 | inconclusive [inhibitor, partial curve] | –
CCc1nc2ccccc2nc1N1CCN(S(=O)(=O)c2ccc(Cl)cc2)CC1 | inconclusive [inhibitor, single point] | –
COc1cc(C(=O)NC(C)CCc2ccccc2)cc(OC)c1OC (stereo unspecified) | inactive | –
Cc1ccc(S(=O)(=O)N2CCN(C3CC(=O)N(CCc4ccccc4)C3=O)CC2)cc1C (stereo unspecified) | inconclusive [inhibitor, partial curve, poor fit] | –
COCCNC(=O)c1c[nH]c2ccc(S(=O)(=O)N(C)c3ccc(C)c(C)c3)cc2c1=O | inconclusive [inhibitor, single point] | –
COc1cc(C2C(C#N)=C(SC)NC3=C2C(=O)CCC3)ccc1O (stereo unspecified) | inactive | –
O=C(Nc1ccc2nccnc2c1)c1ccco1 | inconclusive [inhibitor, partial curve] | –
c1ccc2c(c1)Cc1ccccc1O2 | – | inconclusive: -15.9% [inhibitor]
CN(CC(=O)Nc1c(Cl)cccc1Cl)C(=O)CNC(=O)c1ccc2ccccc2c1 | inconclusive [inhibitor, single point] | –
COc1cc(C(=O)N2CCN(c3ccc(C)cc3C)CC2)cc(OC)c1OC | active: 3.66 µM | –
COc1ccc(-c2csc3ncnc(Oc4ccc5c(C)cc(=O)oc5c4)c23)cc1 | inactive | –
CN(C)S(=O)(=O)c1cccc(NC(=O)CSc2nc3ccccc3[nH]2)c1 | inconclusive [inhibitor, single point] | –
Cc1cc(Cl)ccc1OCC(=O)N(Cc1sccc1C)C1CCS(=O)(=O)C1 (stereo unspecified) | active: 18.4 µM | –
CCC(=O)Nc1ccc2nc(SCCOc3ccc(C)cc3OC)sc2c1 | active: 14.6 µM | –
COc1ccccc1-n1cc(C(=O)N2CCCC(CO)(Cc3ccccc3C)C2)cn1 (stereo unspecified) | inconclusive [inhibitor, single point] | –
CCN=C1S/C(=C\c2cc(Br)c(O)c(OC)c2)C(=O)N1CC | inactive | –
CN1CCN(c2ncc3nc(-c4cn(C)c5ccccc45)c(=O)n(-c4ccccc4)c3n2)CC1 | inconclusive [inhibitor, single point] | –
CCOC(=O)c1c(C)[nH]c(C(=O)CN2C(=O)NC(CC)(c3ccccc3)C2=O)c1C (stereo unspecified) | inconclusive [inhibitor, single point] | –
COc1ccc(-c2noc(CCC(=O)N3CCN(Cc4ccccc4)CC3)n2)cc1 | inconclusive [inhibitor, partial curve] | –
O=C(Nc1cccnc1)C1CCCN(c2ncnc3c2nc2n3CCCCC2)C1 (stereo unspecified) | inconclusive [inhibitor, partial curve] | –
COc1ccc(CCN2CC(C#N)=C3c4cc(OC)c(OC)cc4CCN3C2)cc1OC | inconclusive [inhibitor, single point] | –
O=C(Nc1ccc2oc(=O)ccc2c1)c1ccc2ccccc2c1 | inconclusive [inhibitor, partial curve] | –
COc1cccc2c(SCC(=O)N/N=C/c3ccc(O)cc3O)cc(C)nc12 | active: 10.3 µM | –
N#Cc1ccc(C(=O)N2CCC3CC2c2cc(N4CCCCC4)ccc23)cc1 (stereo unspecified) | active: 16.4 µM | –

Compound | Potency | activity change, negative = growth inhibition
O=c1c2ccccc2nc(SCc2cccc(F)c2)n1-c1cccc(S(=O)(=O)N2CCCC2)c1 | active: 18.4 µM | –
CCOC(=O)c1c(C)sc2c1N(C(C)=O)c1cc(Cl)ccc1S2 | active: 16.4 µM | –
O=c1[nH]ncc2c3ccccc3n(Cc3cccc(Cl)c3)c12 | inactive | –
CCOC(=O)[C@]12CCCC=C1N(Cc1ccc(Cl)cc1Cl)C(=O)[C@H](CC(=O)NCc1cccc3ccccc13)C2 | active: 16.4 µM | –
O=C(c1c(F)cccc1F)N1CCN(c2cccc(C(F)(F)F)c2)CC1 | inconclusive [inhibitor, partial curve] | –
COc1ccc(N2CCN(C(=O)Cc3ccc(C)cc3)CC2)cc1 | inconclusive [inhibitor, single point] | –
CCN(CC)S(=O)(=O)c1ccc(N/N=C(\C)c2ccncc2)nc1 | inconclusive [inhibitor, single point] | –
CC(=O)C1CCC2C3CCC4=CC(=O)C=CC4(C)C3CCC12C (stereo unspecified) | active: 11.6 µM | –
Cc1ccc(S(=O)(=O)C[C@@H]2OC[C@H](Cc3ccccc3)N2S(=O)(=O)c2ccc(C)cc2)cc1 | inconclusive [inhibitor, single point] | –
COc1ccc(-c2sc3ccc(OC)cc3c2C#Cc2ccccn2)cc1 | active: 18.4 µM | –
COc1ccc(-c2nnn(CC(=O)N(Cc3cccs3)C(C)C(=O)NCCC(C)C)n2)cc1OC (stereo unspecified) | active: 20.6 µM | –
CC(c1ccco1)N(C(=O)COc1ccc(Cl)cc1Cl)c1ccccn1 (stereo unspecified) | active: 20.6 µM | –
COc1ccc(CNC(=O)c2cnc(N(C)C)nc2)cc1 | inconclusive [inhibitor, single point] | –
COc1cccc(CN(C)C(=O)c2ccc(S(=O)(=O)Nc3ccccc3F)cc2)c1OC | inconclusive [inhibitor, single point] | –
CCCSc1oc(-c2ccco2)nc1S(=O)(=O)c1ccccc1 | inconclusive [inhibitor, single point] | –
CN(c1ccc(OCC(=O)NC2CCC(O)CC2)cc1)S(=O)(=O)c1ccc(Cl)cc1 (stereo unspecified) | active: 13 µM | –
COc1ccccc1N1CCN(C(=O)c2sc3nc(-c4ccc(F)cc4)cn3c2C)CC1 | active: 16.4 µM | –
C(#Cc1ccccc1)Cn1nnc2ccccc21 | inactive | –
O=C(Cn1cc(SCc2c(F)cccc2Cl)c2ccccc21)N1CCCCC1 | inconclusive [inhibitor, single point] | –
Cc1ccc(C)c(N(CC(=O)NCc2ccccc2)C(=O)c2csnn2)c1 | inactive | –
O=C(CCCN1C(=O)/C(=C/c2ccccc2Cl)SC1=S)N1CCCC1 | active: 20.6 µM | –
CCN(C[C@H]1N[C@@](CC)(C(=O)OC)[C@H]2C(=O)N(Cc3ccccc3)C(=O)[C@@H]12)S(=O)(=O)c1ccccc1 | inconclusive [inhibitor, single point] | –
COCCNC(=O)C(c1c[nH]c2ccccc12)N(C(=O)c1snc(C(N)=O)c1N)c1cccc(OC)c1 (stereo unspecified) | inactive | –
